According to the supplement of paper PMC8728848:
The other results are listed elsewhere or left out.

Columns and labels:
Assay in all cases: glycan array binding signal (z-score within array); higher = stronger binding
Details in all cases: glycan notation: IUPAC condensed, linker removed
[1] = target: Glc(b1-3)Glc(b1-3)Glc(b1-3)Glc(b1-3)Glc(b1-3)Glc(b1-3)Glc
In short: (§1)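 Negative Z-scores can be read as non-binding. The Z-score is calculated within each array and then averaged across arrays of one protein sequence at different concentrations or buffers and across linkers. Arrays, 3228 in all, were curated from the Consortium for Functional Glycomics database and kept only where the protein sequence was available.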

Glc(b1-4)Glc = target: Glc(b1-4)Glc
In short: as §1

Glc(b1-4)Glc(b1-4)Glc = target: Glc(b1-4)Glc(b1-4)Glc
In short: as §1

[2] = target: Glc(b1-4)Glc(b1-4)Glc(b1-4)Glc
In short: as §1

[3] = target: Glc(b1-4)Glc(b1-4)Glc(b1-4)Glc(b1-4)Glc
In short: as §1

[4] = target: Glc(b1-4)Glc(b1-4)Glc(b1-4)Glc(b1-4)Glc(b1-4)Glc
In short: as §1

Glc(b1-6)Glc = target: Glc(b1-6)Glc
In short: as §1

Glc(b1-6)Glc(b1-6)Glc = target: Glc(b1-6)Glc(b1-6)Glc
In short: as §1

[5] = target: Glc(b1-6)Glc(b1-6)Glc(b1-6)Glc
In short: as §1

[6] = target: Glc(b1-6)Glc(b1-6)Glc(b1-6)Glc(b1-6)Glc
In short: as §1

[7] = target: Glc(b1-6)Glc(b1-6)Glc(b1-6)Glc(b1-6)Glc(b1-6)Glc
In short: as §1

[8] = target: Glc(b1-6)Glc(b1-6)Glc(b1-6)Glc(b1-6)Glc(b1-6)Glc(b1-6)Glc
In short: as §1

GlcA(b1-3)Gal = target: GlcA(b1-3)Gal
In short: as §1

[9] = target: GlcA(b1-3)Gal(b1-3)GlcNAc
In short: as §1

[10] = target: GlcA(b1-3)Gal(b1-4)GlcNAc(b1-3)Gal(b1-4)Glc
In short: as §1

[11] = target: GlcA(b1-3)Gal(b1-4)GlcNAc(b1-3)Gal(b1-4)GlcNAc(b1-3)Gal(b1-4)Glc
In short: as §1

[12] = target: GlcA(b1-3)GlcNAc(b1-4)GlcA(b1-3)GlcNAc
In short: as §1

[13] = target: GlcA(b1-3)GlcNAc(b1-4)GlcA(b1-3)GlcNAc(b1-4)GlcA(b1-3)GlcNAc(b1-4)GlcA(b1-3)GlcNAc(b1-4)GlcA(b1-3)GlcNAc(b1-4)GlcA(b1-3)GlcNAc(b1-4)GlcA(b1-3)GlcNAc
In short: as §1

GlcA3S(b1-3)Gal = target: GlcA3S(b1-3)Gal
In short: as §1

[14] = target: GlcA3S(b1-3)Gal(b1-4)GlcNAc(b1-3)Gal(b1-4)Glc
In short: as §1

[15] = target: GlcA3S(b1-3)Gal(b1-4)GlcNAc(b1-3)Gal(b1-4)GlcNAc(b1-3)Gal(b1-4)Glc
In short: as §1

GlcNAc(a1-4)Gal = target: GlcNAc(a1-4)Gal
In short: as §1

[16] = target: GlcNAc(a1-4)Gal(b1-3)[Fuc(a1-2)]Gal
In short: as §1

[17] = target: GlcNAc(b1-2)Man(a1-3)[GlcNAc(b1-2)Man(a1-6)]Man(b1-4)GlcNAc(b1-4)GlcNAc
In short: as §1

[18] = target: GlcNAc(b1-2)Man(a1-3)[GlcNAc(b1-2)Man(a1-6)]Man(b1-4)GlcNAc(b1-4)[Fuc(a1-6)]GlcNAc
In short: as §1

[19] = target: GlcNAc(b1-2)Man(a1-3)[GlcNAc(b1-2)Man(a1-6)][GlcNAc(b1-4)]Man(b1-4)GlcNAc(b1-4)GlcNAc
In short: as §1

[20] = target: GlcNAc(b1-2)Man(a1-3)[Man(a1-3)[Man(a1-6)]Man(a1-6)][GlcNAc(b1-4)]Man(b1-4)GlcNAc(b1-4)GlcNAc
In short: as §1

[21] = target: GlcNAc(b1-2)[GlcNAc(b1-4)]Man(a1-3)[GlcNAc(b1-2)Man(a1-6)][GlcNAc(b1-4)]Man(b1-4)GlcNAc(b1-4)GlcNAc
In short: as §1

[22] = target: GlcNAc(b1-2)[GlcNAc(b1-4)]Man(a1-3)[GlcNAc(b1-2)[GlcNAc(b1-4)][GlcNAc(b1-6)]Man(a1-6)][GlcNAc(b1-4)]Man(b1-4)GlcNAc(b1-4)GlcNAc
In short: as §1

[23] = target: GlcNAc(b1-2)[GlcNAc(b1-4)]Man(a1-3)[GlcNAc(b1-2)[GlcNAc(b1-6)]Man(a1-6)]Man(b1-4)GlcNAc(b1-4)GlcNAc
In short: as §1

GlcNAc(b1-3)Fuc = target: GlcNAc(b1-3)Fuc
In short: as §1

GlcNAc(b1-3)Gal(b1-4)Glc = target: GlcNAc(b1-3)Gal(b1-4)Glc
In short: as §1

[24] = target: GlcNAc(b1-3)[GlcNAc(b1-6)]Gal(b1-4)GlcNAc(b1-3)[GlcNAc(b1-6)]Gal(b1-4)GlcNAc(b1-3)Gal(b1-4)Glc
In short: as §1

GlcNAc(b1-4)GlcNAc = target: GlcNAc(b1-4)GlcNAc
In short: as §1

[25] = target: GlcNAc(b1-4)GlcNAc(b1-4)GlcNAc
In short: as §1

[26] = target: HexA(a1-3)GalNAc4S(b1-4)GlcA(b1-3)GalNAc4S
In short: as §1

[27] = target: HexA(a1-3)GalNAc4S(b1-4)GlcA(b1-3)GalNAc4S(b1-4)GlcA(b1-3)GalNAc4S(b1-4)GlcA(b1-3)GalNAc4S(b1-4)GlcA(b1-3)GalNAc4S(b1-4)GlcA(b1-3)GalNAc4S(b1-4)GlcA(b1-3)GalNAc4S
In short: as §1

[28] = target: HexA(a1-3)GalNAc4S(b1-4)IdoA(a1-3)GalNAc4S
In short: as §1

[29] = target: HexA(a1-3)GalNAc4S(b1-4)IdoA(a1-3)GalNAc4S(b1-4)IdoA(a1-3)GalNAc4S(b1-4)IdoA(a1-3)GalNAc4S(b1-4)IdoA(a1-3)GalNAc4S(b1-4)IdoA(a1-3)GalNAc4S(b1-4)IdoA(a1-3)GalNAc4S
In short: as §1

[30] = target: HexA(a1-3)GalNAc6S(b1-4)GlcA(b1-3)GalNAc6S
In short: as §1

[31] = target: HexA(a1-3)GalNAc6S(b1-4)GlcA(b1-3)GalNAc6S(b1-4)GlcA(b1-3)GalNAc6S(b1-4)GlcA(b1-3)GalNAc6S(b1-4)GlcA(b1-3)GalNAc6S(b1-4)GlcA(b1-3)GalNAc6S(b1-4)GlcA(b1-3)GalNAc6S
In short: as §1

[32] = target: HexA(a1-4)GlcNAc(a1-4)HexA(a1-4)GlcNAc(a1-4)HexA(a1-4)GlcNAc(a1-4)HexA(a1-4)Man
In short: as §1

HexA2S(a1-4)GlcNS6S = target: HexA2S(a1-4)GlcNS6S
In short: as §1

[33] = target: Kdn(a2-3)[GalNAc(b1-4)]Gal(b1-3)GlcNAc
In short: as §1

Man(a1-2)Man = target: Man(a1-2)Man
In short: as §1

B1: Malectin (Xenopus laevis), Q6INX3 (protein)
chain: SGLADKVIWAVNAGGESHVDVHGIHYRKDPLEGRVGRASDYGMKLPILRSNPEDQVLYQTERYNEDSFGYDIPIKEEGEYVLVLKFAEVYFAQSQQKVFDVRVNGHTVVKDLDIFDRVGHSTAHDEIIPISIKKGKLSVQGEVSTFTGKLSVEFVKGYYDNPKVCALFIMKGTADDVPMLQPHPGLE
- glycan array binding signal (z-score) [1]: -0.159
- glycan array binding signal (z-score) (Glc(b1-4)Glc): -0.225
- glycan array binding signal (z-score) (Glc(b1-4)Glc(b1-4)Glc): -0.216
- glycan array binding signal (z-score) [2]: -0.223
- glycan array binding signal (z-score) [3]: -0.201
- glycan array binding signal (z-score) [4]: -0.198
- glycan array binding signal (z-score) (Glc(b1-6)Glc): -0.223
- glycan array binding signal (z-score) (Glc(b1-6)Glc(b1-6)Glc): -0.212
- glycan array binding signal (z-score) [5]: -0.216
- glycan array binding signal (z-score) [6]: -0.176
- glycan array binding signal (z-score) [7]: -0.079
- glycan array binding signal (z-score) [8]: -0.115
- glycan array binding signal (z-score) (GlcA(b1-3)Gal): -0.076
- glycan array binding signal (z-score) [9]: -0.069
- glycan array binding signal (z-score) [10]: -0.072
- glycan array binding signal (z-score) [11]: -0.074
- glycan array binding signal (z-score) [12]: -0.074
- glycan array binding signal (z-score) [13]: -0.071
- glycan array binding signal (z-score) (GlcA3S(b1-3)Gal): -0.074
- glycan array binding signal (z-score) [14]: -0.075
- glycan array binding signal (z-score) [15]: -0.074
- glycan array binding signal (z-score) (GlcNAc(a1-4)Gal): -0.076
- glycan array binding signal (z-score) [16]: -0.076
- glycan array binding signal (z-score) [17]: -0.076
- glycan array binding signal (z-score) [18]: -0.076
- glycan array binding signal (z-score) [19]: -0.072
- glycan array binding signal (z-score) [20]: -0.076
- glycan array binding signal (z-score) [21]: -0.076
- glycan array binding signal (z-score) [22]: -0.074
- glycan array binding signal (z-score) [23]: -0.076
- glycan array binding signal (z-score) (GlcNAc(b1-3)Fuc): -0.076
- glycan array binding signal (z-score) (GlcNAc(b1-3)Gal(b1-4)Glc): -0.074
- glycan array binding signal (z-score) [24]: -0.076
- glycan array binding signal (z-score) (GlcNAc(b1-4)GlcNAc): -0.076
- glycan array binding signal (z-score) [25]: -0.071
- glycan array binding signal (z-score) [26]: -0.073
- glycan array binding signal (z-score) [27]: -0.074
- glycan array binding signal (z-score) [28]: -0.076
- glycan array binding signal (z-score) [29]: -0.076
- glycan array binding signal (z-score) [30]: -0.074
- glycan array binding signal (z-score) [31]: -0.076
- glycan array binding signal (z-score) [32]: -0.07
- glycan array binding signal (z-score) (HexA2S(a1-4)GlcNS6S): -0.076
- glycan array binding signal (z-score) [33]: -0.075
- glycan array binding signal (z-score) (Man(a1-2)Man): -0.076
